PMC4242493
Some of the results follow. The list includes weakly bound sequences.

Target: MaxL homodimer (UniProt P61244)
Assay: universal protein-binding microarray (PBM)
Details: PBS-based mixture, 10 nM His-tagged protein dimer, 2% milk, 200 ng/uL BSA, 50 ng/uL salmon testes DNA, 0.02% TX-100; detection with Alexa 488 anti-His …; high values mean tight binding; most listed sequences are background and not binding sites; double strand, one strand shown

Chain of UniProt P61244 (P61244 whole entry): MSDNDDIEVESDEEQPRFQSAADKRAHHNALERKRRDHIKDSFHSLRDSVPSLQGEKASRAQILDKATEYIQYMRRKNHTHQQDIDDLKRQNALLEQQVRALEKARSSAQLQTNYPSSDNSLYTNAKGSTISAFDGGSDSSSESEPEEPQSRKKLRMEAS

Sequence	binding signal (normalized occupancy)
AGGCTGCC	0.0704
CCATAAGC	0.0819
AATTCTAC	0.0758
ATACTCAT	0.0841
CTCCCTGC	0.0727
CTTCGCGC	0.0677
CGTTGAAC	0.0711
GAAACTAC	0.0727
AGCCCACG	0.0842
CTTGTGCA	0.08
AATGATCA	0.079
GTGCAAGA	0.0761
AATTGTAA	0.0757
GTCTAAAC	0.0747
CCCGGCGC	0.0656
ACTACAGT	0.0741
ACCACAAC	0.0788
GACATTGA	0.078
CTCTATTA	0.0807
ATCTTATG	0.0775
AGTACCAT	0.0799
CGGTTTTC	0.0658
ATAGAGTC	0.0769
CAAAACCC	0.0776
TGATTTAA	0.0746

Sequence	binding signal (normalized occupancy)
ATCGCACG	0.0869
GGTTGGAA	0.0693
CGCGCATC	0.0763
GGCCTACA	0.0738
TGCGCCAA	0.0753
CATATCCG	0.0835
CACTATGC	0.0731
AGACGGCG	0.0699
CGCACCCG	0.0715
GAGTTTGA	0.0714
GTGAACAC	0.0795
CCGCAGTC	0.0686
AAAGGGTT	0.0754
CGTAACGC	0.0778
CCAAAGCG	0.0676
GGGTGGCA	0.0751
GCTCTATA	0.081
ACCGTCTA	0.0715
ACCAAATA	0.0745
ACGCAAGC	0.0724
AAAACTTG	0.0672
GGGACGCA	0.0774
GGGATAAA	0.0813
AAAAAATG	0.0751
CGCTTATA	0.0805

Sequence	binding signal (normalized occupancy)
ACGGGCAT	0.0766
CAGGCACA	0.0804
CCAAATAC	0.0749
ATTTACGG	0.0721
CGATCGTC	0.0707
CTAGATCA	0.0771
AAAGCGCA	0.0715
AGGATAAA	0.0747
AAAGCTGA	0.0683
CACTGCTC	0.0738
TGGCGCCA	0.0698
CGGAAATA	0.0733
CATTAGGC	0.0742
ATAGGTGC	0.084
AGGCGCAT	0.0787
GAATGGAA	0.0714
CACCATCA	0.0874
CACACACC	0.083
ATTCGCCA	0.0789
TCGTGCAA	0.0766
GGATTGAC	0.0725
CTAACCGC	0.07
CTGGCCGC	0.0752
AGATATAA	0.077
ATCATATC	0.0861

Sequence	binding signal (normalized occupancy)
TCATTGGA	0.0693
AATACCCA	0.0787
ACCCCGGG	0.0739
AACCAAAC	0.0724
GTTAGGAA	0.076
GAAAGGCC	0.071
CACGCTCG	0.0939
ACCCGCAA	0.0725
ACACCCCA	0.0864
AATACCAT	0.0843
CTTAAAAC	0.071
CGCAATAG	0.0692
AATCCGGC	0.0689
AGGAAGGA	0.0765
AAGCGGTA	0.0729
CTAAAGTA	0.0751
GACGTGAA	0.0766
GGTCAGTA	0.0723
CCCTCGAA	0.0795
AAATACTC	0.0734
AACCCTCG	0.0775
ACTCGTAA	0.0709
ATTTGACG	0.0755
AGGCTTAC	0.0686
GCATATAA	0.0812

Sequence	binding signal (normalized occupancy)
GAACTGCC	0.0732
CCGAATCA	0.0772
GGGTCTGA	0.0713
CCCCTCGC	0.0758
CGGGCAAC	0.0672
GTATGCTA	0.0818
CCGTTGAC	0.0756
TCATACAA	0.0763
CGATGCAA	0.0703
ATCTTCCC	0.0773
AAAATACC	0.0726
GACTACTC	0.0777
GCGCTAAC	0.0691
ACTCGTAT	0.0768
GGATCGCA	0.078
ATGTAGAA	0.0828
TCGACCAA	0.0711
CGGAGCTC	0.0681
AGGACTGA	0.0723
GCCGTGGA	0.0736
GATCGCCC	0.0778
AACTCGTC	0.0781
AACTGGTG	0.0788
AGGAGCCA	0.0769
TCAACAGA	0.0736

Sequence	binding signal (normalized occupancy)
AATCTGGC	0.0705
CATGCCGC	0.105
ACAGCTAC	0.0756
CAACCTTA	0.0759
ATTGCCTA	0.0755
AGATTTTG	0.0755
CAAAGGAA	0.0723
CATATCCA	0.089
CCATCCGC	0.0781
GCACCCAC	0.0831
CAGTTATG	0.077
CCGTGTCA	0.088
CCAGCGCA	0.0714
CGGGGTTC	0.0762
GTCAGTCA	0.0741
GGGGGTCA	0.082
GCCAGGGC	0.0697
AGTTTAAC	0.0739
CACTGCCC	0.0732
TATGCGAA	0.0764
CCGACTCA	0.0737
CGTAGCAA	0.0735
GATTCCAC	0.0828
ACTAAATC	0.0698
AGGTCGAG	0.0717

Sequence	binding signal (normalized occupancy)
CGTCTGTA	0.0809
AACAAAAC	0.0708
ATGATTCA	0.0831
GAAAGCGA	0.0679
AAAGATAA	0.0737
AGTGTACG	0.0794
GCTCACCA	0.0765
CTCATCAA	0.0791
CGAGCTGC	0.0672
AGATTGAG	0.0761
AATCAGAG	0.0775
ACCGCAGT	0.0731
ACTGAAAG	0.0706
ATTTGGTG	0.0793
AAGGTACT	0.0721
AGGGTCGA	0.0706
GGACTTAC	0.0687
AACATGGT	0.0843
CAAGATAG	0.0769
ATTCTACC	0.0801
CGAACGAG	0.0777
CCGGGGGC	0.0651
ACGGAGCA	0.0747
GCCTATCA	0.0783
TCCGCGAA	0.0721

Sequence	binding signal (normalized occupancy)
GCGACAAC	0.0759
AGGACCGG	0.068
TGAACGCA	0.078
CTGCGACA	0.072
CTGCACAA	0.0745
ATTGGGAA	0.0755
GGTGGATA	0.0747
ATTTGCGC	0.072
GCTCTTCA	0.0752
CTAAAGAG	0.07
CAATGGCC	0.0698
AGAAACGG	0.0689
GGAAAAGA	0.0734
GAATCATC	0.0782
TCATAACA	0.0873
ACTCATTC	0.0738
ACGACCTC	0.0713
AACACCAT	0.0807
CGTGTCCA	0.0813
CCTGTGGC	0.0714
CCTGTGAA	0.0752
CTCACCTC	0.0786
CCAACAGA	0.0753
GATCGCGA	0.0742
AGTTTTAG	0.0713

Sequence	binding signal (normalized occupancy)
CATAAAAG	0.0783
GCTATTAA	0.075
AATGGTTA	0.0807
ATTGCTAC	0.0778
CCAATTAA	0.0789
AGGGAGTG	0.0764
CGCGCCGC	0.0722
CGGGCCAG	0.0675
AACAAGCC	0.0718
CATTCCAG	0.0773
CACGCAGA	0.0851
CTGGGAAA	0.0704
ACGCGATA	0.0795
GCGGTGTA	0.0746
AGCAACAT	0.0801
CGCCCCTA	0.0747
ATGATTGG	0.0808
GCGTTTCA	0.077
CCCTGGGA	0.0718
CTTCTTAA	0.0763
AACTTACT	0.0734
ATGCGAGA	0.0813
GAATCCAC	0.0782
AGGACCAA	0.069
GGCTAACC	0.0752

Sequence	binding signal (normalized occupancy)
ACGCGTAG	0.0796
GAATTAGA	0.0771
ATAAAACA	0.0869
ATTGTGAA	0.0788
ACTTCGGA	0.0692
AGTCTAAG	0.07
AGATTGGC	0.0744
ACTGCGAC	0.0694
TACGATCA	0.074
TCTCTACA	0.0764
GGATTGTA	0.0757
CTAGACGC	0.0727
AAAACGTT	0.0743
AAAAGTCC	0.0697
AACGTTTG	0.0771
TCCAACAA	0.0724
CGATAATC	0.0765
TAACTCTA	0.072
CCCCTTTC	0.0738
ACTGCATA	0.0796
ATACTCGC	0.0786
CAATTCGG	0.0745
CTACAAAC	0.0781
CAATCCCA	0.0788
ATGGTCCC	0.0791

Sequence	binding signal (normalized occupancy)
CAATTCAG	0.071
AGCATGCA	0.114
CCGATAGG	0.0711
GGTCGAAA	0.0786
AGGCTTAA	0.0695
CTGATGAA	0.0754
GCTTCGAA	0.0707
ATAACGCG	0.0811
CAATCTAG	0.0722
AGCACAAC	0.074
TCATTTCA	0.0827
AAGTTCAT	0.0737
GGCCCGGA	0.067
AGTCAGTC	0.0716
ACTAAAAT	0.0735
GCAGTCGA	0.0687
CCATCCCC	0.0807
GCTAGGCC	0.0633
CACGCGTG	0.17
AGCGTCAG	0.0728
ACTTGTGC	0.0751
CCATCTAG	0.0761
CAAGCCTC	0.0728
AAGCACTA	0.0755
CAGTATGA	0.0747

Sequence	binding signal (normalized occupancy)
CCCAGGGA	0.0748
GGACATAA	0.0787
TCCAGCGA	0.0711
AAAATTTT	0.0664
ACAAAAAG	0.0691
CTTGACGA	0.0698
AAGACTCT	0.0709
CATCTGCG	0.0794
CACTCGTA	0.0699
CGCCTTCA	0.0714
CACGCGGA	0.15
TTGAGAAA	0.0807
CCAGCGGA	0.0737
TATGGCCA	0.0862
ACCTACAT	0.085
GGTTCGAA	0.0749
ATGCACGG	0.0875
AGTTACTG	0.078
GCGGCGGA	0.0664
CAGCCCCC	0.0753
ATGGGCGA	0.0772
CGATGCCA	0.0777
ACGGACCT	0.0748
ATTTAGCA	0.0739
AGTTAACT	0.0767

Sequence	binding signal (normalized occupancy)
GCGCTCAC	0.0771
ACGTGAAT	0.0824
CCTTTGTA	0.0734
CCAGTGAA	0.0713
CCCAATCC	0.0749
CACCCAAC	0.0751
ACCCAAGC	0.0747
CACAACGA	0.0744
AGACAGTC	0.0718
ATTAGGCG	0.0766
CCATGGAG	0.0784
ACTAGCCA	0.0701
CTACAGTC	0.0741
CAGCTGGC	0.0726
ATTAAACC	0.08
ACCCGGAT	0.0752
TACACATA	0.0846
GAGATAAA	0.0774
CTCGAGCC	0.0744
CGATGGAC	0.0705
ATGCGCGC	0.0844
AATTGGGT	0.0727
GGATCAGA	0.0774
GCATATCC	0.0834
AAGGACAC	0.0757

Sequence	binding signal (normalized occupancy)
TTACGGAA	0.0743
CTACTACA	0.0787
CGCTGCCC	0.0694
GGATTACA	0.0779
AAGATCCG	0.0754
GGGAGATA	0.0827
AGGATTGC	0.0735
CAAATTGC	0.0713
CAGACTGC	0.07
ATATCTTA	0.0733
AGATCATG	0.0913
AATCTATC	0.08
ACTACTTC	0.0704
AGGGATGA	0.0811
TACCTAGA	0.073
ATCGCCCA	0.0796
AAGAGAAC	0.0739
AACGTCAT	0.0774
ACGAGCCA	0.0776
